# In all, about 310,000 compounds went through this assay and about 14,000 (4.5%) showed an effect of 50% or more. Effects have a minus sign here. The list shows a part of the results.
# Target: human ether-à-go-go-related gene (hERG) potassium channel (human, UniProt Q12809)
# Test: primary screen, population patch clamp on CHO cells stably expressing hERG
# 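Note: peak tail current of the secondary pulse compared with the same well before compound.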
# human ether-à-go-go-related gene (hERG) potassium channel, sequence (Q12809 whole entry, looked up): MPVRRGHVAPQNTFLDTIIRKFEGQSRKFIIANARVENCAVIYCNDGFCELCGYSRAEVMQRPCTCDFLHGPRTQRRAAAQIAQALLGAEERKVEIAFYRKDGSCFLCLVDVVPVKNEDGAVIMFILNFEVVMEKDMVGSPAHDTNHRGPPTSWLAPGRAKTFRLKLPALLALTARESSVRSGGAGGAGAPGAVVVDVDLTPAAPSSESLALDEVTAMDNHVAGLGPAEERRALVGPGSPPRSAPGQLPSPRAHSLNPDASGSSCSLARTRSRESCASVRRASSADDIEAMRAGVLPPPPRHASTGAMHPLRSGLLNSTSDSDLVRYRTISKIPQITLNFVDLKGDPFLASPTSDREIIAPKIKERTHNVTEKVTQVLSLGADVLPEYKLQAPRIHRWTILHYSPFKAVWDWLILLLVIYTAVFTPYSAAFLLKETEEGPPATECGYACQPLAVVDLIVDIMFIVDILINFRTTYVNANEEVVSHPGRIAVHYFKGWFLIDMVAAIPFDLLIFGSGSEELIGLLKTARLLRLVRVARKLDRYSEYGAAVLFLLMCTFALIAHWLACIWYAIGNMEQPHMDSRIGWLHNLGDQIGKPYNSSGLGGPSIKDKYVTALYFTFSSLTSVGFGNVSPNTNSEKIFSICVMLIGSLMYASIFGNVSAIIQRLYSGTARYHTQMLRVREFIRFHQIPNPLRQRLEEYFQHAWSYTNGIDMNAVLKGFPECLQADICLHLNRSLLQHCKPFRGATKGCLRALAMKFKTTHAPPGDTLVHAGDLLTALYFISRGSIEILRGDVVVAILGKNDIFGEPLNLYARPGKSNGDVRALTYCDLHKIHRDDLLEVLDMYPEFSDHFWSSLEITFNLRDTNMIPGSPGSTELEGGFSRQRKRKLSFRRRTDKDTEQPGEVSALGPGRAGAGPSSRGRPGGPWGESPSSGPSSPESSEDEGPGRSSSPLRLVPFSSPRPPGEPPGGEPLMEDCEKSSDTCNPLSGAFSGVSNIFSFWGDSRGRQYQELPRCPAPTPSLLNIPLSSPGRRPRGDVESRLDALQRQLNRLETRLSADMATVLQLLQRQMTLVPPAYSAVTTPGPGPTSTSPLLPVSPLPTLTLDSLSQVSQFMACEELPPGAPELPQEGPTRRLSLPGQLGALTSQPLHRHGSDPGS
row,Structure (SMILES),"hERG current change (%, negative = inhibition) at 10uM [%]"
1,Cc1ccc(S(=O)(=O)c2nnn3c2nc(N2CCN(c4ccccn4)CC2)c2ccccc23)cc1,-1.69
2,CCOC(=O)c1cccc(COC(=O)c2cccc(-c3nnc(-c4ccccc4)o3)c2)c1,-2.94
3,O=C(CCCN1CCC(n2c(=O)[nH]c3ccccc32)CC1)c1ccc(F)cc1,-73
4,NC(=O)CSc1nnc(NC(=O)C23CC4CC(CC(C4)C2)C3)s1,0.0407
5,COC(=O)CSc1nnc(CNC(=O)c2cc(OC)cc(OC)c2)n1-c1ccc(F)cc1,-4.55
6,CCN(CC)C(=O)C1CCCN(C(=O)Nc2ccc(NC(=O)N3CCCC(C(=O)N(CC)CC)C3)cc2)C1 (stereo not drawn),-11.5
7,CCN(CC)C(=O)c1cn(CC)c(=O)c2cc(OC)c(OC)cc12,-3.19
8,COc1cc2c(cc1OC)CN(C(C)C(=O)N1CCc3ccccc31)CC2 (stereo not drawn),-14
9,CC(NC(=O)c1ccco1)c1nc(-c2ccc(Cl)cc2)no1 (stereo not drawn),-17.3
10,COc1ccc(OC)c(CNC(=O)CCSCc2ccc(F)cc2Cl)c1,-17.2
11,Nc1c2c(=O)oc(-c3ccccc3)cc2nn1-c1ccccc1,-8.65
12,N#C/C(=C\c1ccc(-c2ccccc2Cl)o1)C(=O)Nc1nc2ccccc2s1,32.7
13,CCc1cc(=O)oc2c(CNCc3ccccc3F)c(O)c(Cl)cc12.Cl,9.4
14,CN(C)c1nc(N)ncc1-c1ccc(Oc2ccccc2)cc1,18
15,CCCc1ccc(-c2csc(NC(=O)Cc3cccs3)n2)cc1,16.9
16,CCc1ccc(-c2cnc3ccccc3n2)cc1NC(=O)CNC(=O)c1ccccc1,18.9
17,COc1ccc(CCNS(=O)(=O)c2ccc(OC)cc2)cc1,-20.1
18,Cc1cccc(N(C(=O)CCC(=O)Nc2cccnc2)C(C(=O)NC2CCCC2)c2ccncc2)c1 (stereo not drawn),8.74
19,CC(=O)Nc1c(C(=O)N2CCN(c3ccccn3)CC2)cnn1-c1ccc(C)cc1,-3.36
20,CCC(CC)C(=O)N1c2ccc(F)cc2CCC1C (stereo not drawn),-1.76
21,O=C(Cn1c(=O)oc2cccnc21)Nc1ccccc1Oc1ccc(Cl)cc1Cl,5.55
22,O=C(Cc1cccs1)NC(c1ccccc1)c1ccccc1,4.82
23,CCc1oc2ccccc2c1C(=O)c1cc(Br)c(O)c(Br)c1,-17.3
24,O=C1C=C(c2cccc(Cl)c2)C[C@@H](c2ccc(F)cc2)C1,3.62
25,COc1cccc(C(O)Cc2nc3ccccc3n2C)c1OC (stereo not drawn),23.7
26,C=CCOc1ccccc1/C=N/O,-8.21
27,Cc1ccc(-c2nc3ncccc3o2)cc1NC(=O)c1sc2ccccc2c1Cl,5.72

row,Structure (SMILES),"hERG current change (%, negative = inhibition) at 10uM [%]"
1,COc1ccc(C(=O)CC(Nc2ccc([N+](=O)[O-])cc2)c2ccc(OC)cc2)cc1 (stereo not drawn),-8.47
2,CCc1cc(C(=O)N2CCCC(N3CCN(c4cccc(C(F)(F)F)c4)CC3)C2)n(C)n1 (stereo not drawn),-37.6
3,Cc1ccc(NC(=O)CCCn2nc(C)c3c(C)n(-c4ccccc4)nc3c2=O)cc1C,24.6
4,CCOC(=O)C1CCCN(Cc2ccc(OC)c(OCc3ccccc3)c2)C1 (stereo not drawn),-46.1
5,Cc1ccc(NC(=O)c2ccc(Br)o2)cc1S(=O)(=O)N(C)C,-54.7
6,CCOC(=O)C1(CCc2ccccc2)CCN(C(=O)CCn2cnnn2)CC1,-43.2
7,COc1ccc2c(Cl)c(C(=O)N/N=C/c3ccncc3)sc2c1,13.9
8,O=C(Cn1c(-c2ccccc2)c[n+]2ccsc12)c1ccc(Br)cc1.[Br-],-32.2
9,O=C(COc1ccc2c3c(c(=O)oc2c1)CCCC3)N1C[C@H]2C[C@@H](C1)c1cccc(=O)n1C2,-12.2
10,CCOC(=O)c1ccc2[nH]c(C)c(C)c2c1,-2.18
11,CC(C)C[C@@H](CC#N)N1CCN(CCc2ccccc2)CCC1=O,2.01
12,C/C(=N\N=C(/N)SC1CC(=O)N(c2cccc(Cl)c2)C1=O)c1cccs1 (stereo not drawn),15.9
13,S=C(Nc1ccc2cn[nH]c2c1)Nc1ccccc1Cl,-4.68
14,CCOc1ccc2oc(=O)cc(CN3CCN(C(=O)c4ccco4)CC3)c2c1,-69.4
15,O=C(COC(=O)CNC(=O)c1ccc(F)cc1)Nc1cccc(S(=O)(=O)N2CCCC2)c1,-12
16,CCOC(=O)CSc1nnc(-c2cccc(Cl)c2)n1CC,-3.47
17,CC(=O)N1N=C(c2cccc([N+](=O)[O-])c2)OC1c1ccc(Br)cc1 (stereo not drawn),-7.59
18,COc1ccccc1NC(=O)COC(=O)Cc1cccs1,14.1
19,Cc1cccc(C)c1OCCSc1nc2ccccc2n1CC(=O)O,8.02
20,Cc1cc(C)n(S(=O)(=O)c2cccc([N+](=O)[O-])c2)n1,3.73
21,Brc1ccc(-c2noc(CCc3ccccc3)n2)cc1,5.43
22,CSc1ccc(CN2CCC(N3CC(C)OC(C)C3)CC2)cc1.O=C(O)C(=O)O (stereo not drawn),-20.5
23,COC(=O)c1ccccc1NC(=O)Cn1cnc([N+](=O)[O-])c1,12.2
24,Nc1cc(N)nc(SCc2ccccc2)n1,-7.61
25,COc1cc(NC(=O)c2ccc(OC)c([N+](=O)[O-])c2)ccc1NC(=O)c1cccs1,-37.3
26,COc1ccccc1NC(=O)c1c(Nc2ccccc2F)sc(C(=O)Nc2cccc(Cl)c2)c1N,1.42
27,CCN(CC)CC.COc1ccccc1-n1c(=S)[nH]c2c(sc(=S)n2-c2ccc(C)cc2C)c1=O,20.4
